# Reference: article PMC4336329 (PLoS ONE, 2015)
# Out of some 310,000 compounds screened, about 2,200 (0.71%) showed an effect of 50% or more. Effects have a minus sign here. The list shows a part of the results.
# Target: human ether-à-go-go-related gene (hERG) potassium channel (human, UniProt Q12809)
# Experiment: primary screen, population patch clamp on CHO cells stably expressing hERG
# Chain of human ether-à-go-go-related gene (hERG) potassium channel (Q12809 whole entry, looked up): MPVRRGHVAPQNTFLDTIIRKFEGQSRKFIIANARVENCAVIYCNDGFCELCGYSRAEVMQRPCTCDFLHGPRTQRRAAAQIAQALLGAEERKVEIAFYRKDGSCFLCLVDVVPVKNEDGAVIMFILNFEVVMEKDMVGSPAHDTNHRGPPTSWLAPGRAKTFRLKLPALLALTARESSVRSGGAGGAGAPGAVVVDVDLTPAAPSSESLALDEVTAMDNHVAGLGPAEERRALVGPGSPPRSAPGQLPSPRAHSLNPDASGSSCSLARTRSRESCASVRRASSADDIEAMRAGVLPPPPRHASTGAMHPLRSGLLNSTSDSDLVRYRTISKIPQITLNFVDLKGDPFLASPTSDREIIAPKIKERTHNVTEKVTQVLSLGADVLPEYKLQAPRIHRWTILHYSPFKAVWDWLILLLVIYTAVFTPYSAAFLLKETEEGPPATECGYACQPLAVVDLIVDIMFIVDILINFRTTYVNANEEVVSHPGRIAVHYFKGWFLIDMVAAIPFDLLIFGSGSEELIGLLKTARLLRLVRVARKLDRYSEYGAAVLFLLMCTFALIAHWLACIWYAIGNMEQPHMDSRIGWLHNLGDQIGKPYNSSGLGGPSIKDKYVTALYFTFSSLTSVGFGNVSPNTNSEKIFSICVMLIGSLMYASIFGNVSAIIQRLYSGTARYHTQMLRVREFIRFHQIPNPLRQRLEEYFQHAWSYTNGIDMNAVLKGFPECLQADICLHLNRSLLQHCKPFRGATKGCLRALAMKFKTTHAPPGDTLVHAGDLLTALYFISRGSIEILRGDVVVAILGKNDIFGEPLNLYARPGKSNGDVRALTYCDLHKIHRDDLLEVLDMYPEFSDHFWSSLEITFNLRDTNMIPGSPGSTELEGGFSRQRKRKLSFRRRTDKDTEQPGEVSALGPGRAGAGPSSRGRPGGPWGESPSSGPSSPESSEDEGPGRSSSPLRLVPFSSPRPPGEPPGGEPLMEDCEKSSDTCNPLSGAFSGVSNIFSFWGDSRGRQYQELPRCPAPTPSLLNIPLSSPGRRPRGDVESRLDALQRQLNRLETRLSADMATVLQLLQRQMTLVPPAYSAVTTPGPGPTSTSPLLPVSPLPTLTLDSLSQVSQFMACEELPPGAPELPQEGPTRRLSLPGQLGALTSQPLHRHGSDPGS
row,Structure (SMILES),"hERG current change (%, negative = inhibition) at 1uM [%]"
1,Cc1ccc(N2CC(=O)N(NC(=O)Nc3ccc(Cl)c(Cl)c3)CC2=O)cc1,4.68
2,CCC(C)(C)NC(=O)C(c1ccccc1F)N(Cc1ccco1)C(=O)c1csnn1 (stereo not shown),-1.71
3,CCOC(=O)c1c(C)c(C(=O)NC(C)COC)c(C)n1CC (stereo not shown),-2.56
4,CCOc1ccc(CN2CCNC(=O)C2CC(=O)N(C)Cc2nonc2C)cc1 (stereo not shown),12.1
5,COc1ccc(C(CC(=O)Nc2ccc(C)cn2)N2Cc3ccccc3C2=O)cc1 (stereo not shown),5.62
6,CN=C1S/C(=C\c2ccc(SC)cc2)C(=O)N1C,16.5
7,Cc1ccc(CCNC(=O)CN2CCN(Cc3ccccc3F)C2=O)cc1,6.24
8,Cc1cccc2cc(C3CC(c4cccs4)=NN3C(=O)CCC(=O)O)c(Cl)nc12 (stereo not shown),-1.16
9,COc1cc2nc(CSc3ncn[nH]3)[nH]c(=O)c2cc1OC,12.5
10,COc1cc(NC(=O)C(=O)Nc2ccc3nc4n(c(=O)c3c2)CCCCC4)cc(OC)c1OC,11
11,COc1ccccc1CNC1CCCc2ccccc21.O=C(O)C(=O)O (stereo not shown),11.2
12,Cc1ccc(NC(=O)c2cc(C(C)(C)C)nn2Cc2ccccc2)cc1,-0.288
13,CC(C)c1ccc(C(C(=O)NC2CCCCC2)N(C(=O)c2ccccn2)c2cccnc2)cc1 (stereo not shown),13.5
14,CCC(C)NC(=O)CCSc1ccc(C)cc1 (stereo not shown),9.62
15,CCOc1ccc(-c2nnn(CC(=O)NCc3ccc(F)cc3)n2)cc1OCC,-2.25
16,CCOC(=O)c1sc(SCC(=O)Nc2ccc(N(C)C)cc2)nc1N,9.91
17,CCNC(=O)C1OC(n2cnc3c(N)ncnc32)C(O)C1O (stereo not shown),8.87
18,CC[C@@](C)(NS(=O)(=O)OCC(Cl)(Cl)Cl)c1ccccc1,2.3
19,COc1cc(C2C(C(C)=O)=C(O)C(=O)N2CCN(C)C)ccc1O (stereo not shown),8.74
20,Nc1ccc(-n2cnc3cc([N+](=O)[O-])ccc32)cc1,8.92
21,CC(=O)Nc1cccc(NC(=O)CSc2nc(=O)n(CCCN3CCOCC3)c3c2CCC3)c1,9.44
22,Cc1ccccc1NC(=O)c1cn2c(nc3ccccc32)c(C#N)c1C,9.11

row,Structure (SMILES),"hERG current change (%, negative = inhibition) at 1uM [%]"
1,O=C(Nc1cccnc1Cl)c1ccc(=O)oc1,12.5
2,CCCn1cnc2c(sc3nc4c(cc32)CSC(C)(C)C4)c1=O,9.79
3,COc1ccc(Nc2cc3n(c(=O)n2)CCc2cc(OC)c(OC)cc2-3)cc1,7.64
4,Cc1c(C(=O)N(C)c2ccccc2)oc2c1C(O)CC(C)(C)C2 (stereo not shown),13.5
5,COc1ccc(NC(=O)CCC(=O)N2CCOCC2)c([N+](=O)[O-])c1,6.51
6,CCCCN1C(=O)NC(=O)/C(=C/c2cnc(SC)nc2)C1=O,7.6
7,CS(=O)(=O)c1ccc(-c2cccc(NC(=O)c3ccc(Br)o3)c2)nn1,9.28
8,COC(=O)C1=C(C)N(C)C(=O)NC1c1ccc(O)c(OC)c1 (stereo not shown),10.4
9,CCCCCOc1ccc(/C=N/NC(=O)c2nnn(-c3nonc3N)c2CN2CCCCCC2)cc1,11.5
10,Cc1ccc(C2=NN=C(NC(=O)CSc3nncn3C)SC2)cc1,6.42
11,O=C(NCc1cccnc1)c1cc([N+](=O)[O-])ccc1N1CCOCC1,-11.7
12,COc1ccc(NS(=O)(=O)c2cc(C(=O)O)ccc2C)cc1,0.856
13,CC(Oc1ccc(C(C)(C)C)cc1)C(=O)NCC(c1ccco1)N1CCCC1 (stereo not shown),-1.74
14,CC(Oc1ccc2c3c(c(=O)oc2c1)CCC3)C(=O)N[C@@H](Cc1ccccc1)C(=O)O (stereo partly shown),2.76
15,C=CCCCCCCCCC(=O)NNC1CC(=O)N(c2ccccc2)C1=O (stereo not shown),13.1
16,Cl.O=C(CN1CCCCC1)Nc1ccc(NC(=O)c2ccccc2Cl)cc1Cl,6.62
17,Cc1ccc(C(CNC(=O)c2ccc(Br)o2)N2CCN(C)CC2)cc1 (stereo not shown),-10
18,Cc1n[nH]c(=O)c2c(NC(=O)COC(=O)Cc3c(F)cccc3Cl)oc(C)c12,13.4
19,S=C(NC1CCCC1)N1CCOCC1,6.59
20,Cc1ccc(C(=O)C(OC(=O)CN2C(=O)c3ccccc3C2=O)c2ccccc2)cc1 (stereo not shown),-8.22
21,CC(=O)c1cccc(NC(=O)c2cc3nc(C)cc(C)n3n2)c1,9.35
22,CCCOc1ccccc1Nc1nnc(C)c(=O)[nH]1,-1.29

row,Structure (SMILES),"hERG current change (%, negative = inhibition) at 1uM [%]"
1,Cc1ccc(O)c(C(=O)c2cnc(/N=C(\N)N(C)C)nc2)c1,11.8
2,CC(Sc1ccc(S(=O)(=O)N2CCCC2)cn1)C(N)=O (stereo not shown),8.49
3,COc1ccc(C2C(C(C)=O)=C(O)C(=O)N2c2cccnc2)cc1OC (stereo not shown),7.47
4,COc1ccc(-c2nn(-c3ccccc3)cc2C(=O)NC(=S)Nc2cc(Cl)ccc2Cl)cc1,4.81
5,C(=C\c1nc(-c2ccccc2)no1)/c1ccccc1,17.6
6,CN(C(=O)COC(=O)C1CCN(S(=O)(=O)c2ccc3c(c2)OCCO3)CC1)c1ccccc1,6.12
7,CCOC(=O)Cn1c(C)[n+](C)c2cc(Cl)c(Cl)cc21.[I-],-3.63
8,Cc1cc(N2C(=O)C(O)=C(C(=O)c3cc4ccccc4o3)C2c2cccc(Cl)c2)no1 (stereo not shown),23.7
9,O=C(Nc1ccc(Cl)cc1C(=O)NCCN1CCOCC1)c1ccc(Cl)cc1Cl,-4.27
10,COc1ccc(OCc2ccc(/C=N\NC(=O)c3sccc3C)o2)cc1,12.1
11,O=C1CC[C@@H](CN(Cc2ccccn2)Cc2nc(Cc3ccccc3)no2)N1,6.67
12,N#CCCn1cc(C(=O)Nc2ccccc2Br)c(-c2cc3ccccc3o2)n1,8.34
13,CC(=O)Oc1ccc(-c2cccc(C(=O)N3CCCCC3)c2)cc1,11.4
14,CCOC(=O)C1CCN(/C=C2/C(=O)NC(=O)N(Cc3ccco3)C2=O)CC1,15.7
15,CCCS(=O)(=O)N1CCC(C(=O)N2CCN(C(=O)OCC)CC2)CC1,12.2
16,CC#CP(=O)(OC)C(O)(CF)c1ccccc1 (stereo not shown),1.58
17,CCCCn1c(N)c(N(CC)C(=O)c2ccccc2C)c(=O)[nH]c1=O,9.7
18,Cc1oc(-c2ccc(Cl)cc2)nc1CN1CCCC(C(=O)NC2CC2)C1 (stereo not shown),-18.2
19,COc1ccccc1Nc1nc(N)nc(CN2CCN(c3ccccc3F)CC2)n1,-9.68
20,COc1ccc(C2CC(C(F)(F)F)n3nc(C(=O)Nc4c(C)n(C)n(-c5ccccc5)c4=O)c(Cl)c3N2)cc1 (stereo not shown),1.48
21,O=C(NCc1ccc(S(=O)(=O)NC2CCCCC2)s1)c1ccccc1,16.9
22,COc1ccc(C(NC(=O)N2CC(C)OC(C)C2)C(Cl)(Cl)Cl)cc1F (stereo not shown),3.07

row,Structure (SMILES),"hERG current change (%, negative = inhibition) at 1uM [%]"
1,CC(C)(C)NS(=O)(=O)c1cnc(Cl)c(Cl)c1,9.38
2,Cc1ccc(NC(=O)c2ccc3snnc3c2)cc1,7.39
3,CCOC(=O)C1CCCN(c2c(NCCc3ccc(S(N)(=O)=O)cc3)c(=O)c2=O)C1 (stereo not shown),6.24
4,CCCCS(=O)c1c(O)c2ccccc2[nH]c1=O (stereo not shown),7.52
5,COc1ccc(C2=NCC(CSc3nccc(=O)[nH]3)S2)cc1 (stereo not shown),11.8
6,CC1CCC2(CC1)NC(=O)N(CC(=O)c1cn(CCC#N)c3ccccc13)C2=O (stereo not shown),-1.41
7,Cn1c2c(c(=O)[nH]c1=O)C(c1ccc(O)cc1)C1=C(N2)c2ccccc2C1=O (stereo not shown),8.46
8,Cc1cc(/N=C/N(C)C)on1,22.8
9,Cc1ccc(S(=O)(=O)N(C)CC(=O)Nc2nnc(CC(C)C)s2)cc1,8.58
10,O=S1(=O)NC(C2CC2c2ccccc2)CCO1 (stereo not shown),10.8
11,CC(O)(CS(=O)(=O)Cc1ccccc1)C(=O)Nc1ccc(C(F)(F)F)cc1 (stereo not shown),7.61
12,C/C(=C\C(=O)c1ccc(C)cc1)Nc1cccc(O)c1,11.3
13,COC(=O)Cn1ncc2c3ccccc3n(C)c2c1=O,10.8
14,CCCC(C(=O)NC1CCCC1)N(C(=O)c1snc(C(N)=O)c1N)c1ccc(OCC)cc1 (stereo not shown),-2.7
15,CC(=O)N1CCc2c(sc(NC(=O)CCS(=O)(=O)c3ccccc3)c2C(N)=O)C1,10.6
16,COc1ccc(-c2csc(N(CCCN(C)C)C(=O)c3ccc(C(C)(C)C)cc3)n2)cc1.Cl,18.1
17,O=C(CSc1nncn1-c1cccnc1)N(c1ccccc1)c1ccccc1,12.5
18,Cc1cc(C)c2sc(NC(=O)c3ccc([N+](=O)[O-])o3)nc2c1,-4.73
19,CCOC(=O)NC(=O)c1cn(N(C)c2ncc(C(F)(F)F)cc2Cl)c(=O)[nH]c1=O,20.3
20,O=C(NNC(=S)NC1CC2C=CC1C2)c1ccncc1 (stereo not shown),15.6
21,COc1ccc2cc(CN(CC3COCCO3)S(=O)(=O)c3ccc(Cl)cc3)c(=O)[nH]c2c1 (stereo not shown),6.36
22,CCc1ccc(OCc2nnc(SCC(=O)Nc3cccc(C(=O)N4CCOCC4)c3)o2)cc1,1.08
